Structures are written as SMILES. The campaign covered roughly 52,000 compounds. About 4,300 (8.3%) were called active. Rule as the data show it: active = survival mostly below about 52% (no sharp cut-off); inactive = mostly above about 56%. The list shows a part of the results.

In the assay the test system is DeltatarO mutant. In words: S. aureus survival, RN4220 and DeltatarO strains – OD600, teichoic acid synthesis inhibitors, primary screen (AID 463173). The conditions noted are these: S. aureus RN4220 wild type/DeltatarO growth, OD600, 18 h, stronger effect = lower value, screened at 18.75 µg/mL (by protocol).
Take `CCN1CCN(c2cc(C)c3cc(NC(=O)/C=C/c4cccc(OC)c4OC)ccc3n2)CC1`: the survival was active: 43%.
With `COc1ccc(-c2nc3sc(CCNC(=O)C(=O)Nc4ccc(C)c(C)c4)c(C)n3n2)cc1`, the survival is inactive: 86%.
`Cc1ccc(C)c(Cn2c(=O)n(CCCC(=O)NCCc3ccc(Cl)cc3)c(=O)c3ccccc32)c1`: the survival is inactive: 89%.
In the case of `O=C(COc1ccc(Cl)cc1)NCC(c1cccs1)S(=O)(=O)c1ccc(F)cc1` (stereo not given), the survival is inactive: 78%.
Take `CC1=C(C(=O)N2CCN(c3ccc(Cl)cc3)CC2)C2(CCC(C)CC2)OC1=O` (stereo not given): the survival is inactive: 121%.
As to `CCN(CC)C(=O)Cn1c(=O)sc2ccccc21`, the survival was inactive: 85%.
Then `CCOC(=O)C1CCCN(c2cc(C)nc3cc(-c4ccc(Cl)cc4)nn23)C1` (stereo not given), with inactive: 101%; and `O=C(Cn1c(=O)n(Cc2ccccc2)c(=O)c2sc3ccccc3c21)Nc1ccc(F)cc1`, with inactive: 48%; and `CCCCN(CC)CCCNC(=O)c1cc2c(=O)oc3ccc(C)cc3c2s1`, with inactive: 112%.
For the compound `COc1ccc(OC)c(-c2csc(-c3c(N)c(C(=O)c4ccc(Cl)cc4)n4ccccc34)n2)c1`, the survival was inactive: 94%.
Then `CCOc1cc(CNC(=O)NC2COc3ccccc3C2)cc(OCC)c1OCC` (stereo not given), with inactive: 144%.
Then `Cn1c(=O)[nH]c(=O)c2[nH]c(N(CCO)CCO)nc21`, with inactive: 117%.
Then `CC(C)c1ccc(NC(=O)c2cnc3sc(N4CCCC4)nn3c2=O)cc1`, with inactive: 80%; and `CCOC(=O)c1ccc(NC(=O)CC2C(=O)N(c3cccc(C)c3)C(=O)N2CCOC)cc1` (stereo not given), with inactive: 74%.
For the compound `CCOc1ccc(-c2nonc2NC(=O)c2ccco2)cc1OCC`, the survival was inactive: 104%.
With `COC(=O)c1ccccc1NC(=O)COC(=O)c1ccco1`, the survival was inactive: 78%.
For the compound `CCOc1ccccc1CNC(=O)c1cc2c(=O)n(Cc3ccco3)ccc2nc1C`, the survival is inactive: 76%.
Regarding `Cc1ccc(NC(=O)C(=O)NCC(c2ccc3c(c2)OCO3)N2CCN(c3ccccc3)CC2)cc1` (stereo not given), the survival was inactive: 101%.
With `O=C(c1cccs1)c1cn(CCOc2ccccc2Cl)c2ccccc12`, the survival was inactive: 72%.
Consider `CCN(C(=O)C(Cc1ccccc1)NS(=O)(=O)c1cccc2nsnc12)c1ccccc1` (stereo not given), for which the survival is inactive: 75%.
Turning to `COc1cc(C(=O)NCCc2csc3nc(-c4ccccc4C)nn23)cc(OC)c1OC`, the survival is inactive: 86%.
Then `CC(C)c1ccc(NC(=O)CC2Oc3ccccc3NC2=O)cc1` (stereo not given), with inactive: 71%; and `Cc1cc(OCC(=O)N(Cc2ccc(N(C)C)cc2)C2CCS(=O)(=O)C2)cc(C)c1Cl` (stereo not given), with inactive: 97%.
On to `Cc1ccc(Cl)cc1NC(=O)CN1C(=O)COc2ccc(S(=O)(=O)N3CCCCCC3)cc21`, for which the survival was inactive: 73%.
`COc1ccccc1CCNC(=O)CCc1c(C)c2cc3c(C)c(C)oc3cc2oc1=O`: the survival was inactive: 101%.
Take `CCCCN(C)CCCNC(=O)c1cc(-c2cccnc2)nc2ccccc12`: the survival was inactive: 83%.
For `CCOC(=O)C1CCCN(C(=O)Cn2ncn3c(cc4sc(CC)cc43)c2=O)C1` (stereo not given), the survival was inactive: 70%.
Take `COC(=O)c1ccc(OC)c(Cn2c(=O)n(-c3cccc(Cl)c3)c(=O)c3c4c(sc32)CN(C(C)=O)CC4)c1`: the survival was inactive: 62%.
Consider `COc1cc(OC)c(NC(=O)Cc2ccc(-n3c(C)nc4cccnc43)cc2)cc1Cl`, for which the survival was inactive: 123%.
In the case of `O=C(Nc1ccc(F)cc1)[C@@H](c1ccccc1)N1Cc2ccccc2C1=O`, the survival was active: 38%.
For `CCOc1ccc(CCNC(=O)c2ccc(-c3nc(COc4ccc(C)cc4)c(C)o3)cc2)cc1`, the survival was inactive: 86%.
Take `COc1ccc(NC(=O)CSc2nc(-c3ccc(F)cc3)c3cccc(C)c3n2)cc1`: the survival was inactive: 82%.
For `COCCCn1c(SCC(=O)Nc2ccccc2OC)nc2c(sc3ccccc32)c1=O`, the survival is inactive: 77%.
Take `COc1ccc(CCNC(=O)c2ccc(Cn3c(=O)c4ccccc4n(Cc4ccc(C)cc4)c3=O)cc2)cc1OC`: the survival is inactive: 102%.
In the case of `COc1ccc(C2C(=O)N(C3CCCCCC3)CC(=O)N2CCc2ccc(OC)c(OC)c2)cc1` (stereo not given), the survival is inactive: 77%.
Then `Cc1ccc2nc(CN3CCN(C(=O)Nc4ccc(C)c(F)c4)CC3)oc2c1`, with inactive: 83%; and `CCCCCC(=O)Nc1ccc(Cc2ccncc2)cc1`, with inactive: 88%.
As to `CCCOc1ccc(-c2nc(N3CCC(C)CC3)c3ccccc3n2)cc1`, the survival is active: -1%.
In the case of `CCCn1c2ccccc2c2cnn(CC(=O)N(Cc3ccccc3)C(C)C)c(=O)c21`, the survival is inactive: 126%.
Regarding `CCCCOc1ccc(S(=O)(=O)NCc2csc(-c3ccc(OC)cc3)n2)cc1`, the survival was inactive: 88%.
Take `COc1ccc(-c2noc(N3CCC(C(=O)N(C)c4cc(Cl)ccc4OC)CC3)n2)cc1`: the survival was inactive: 50%.
As for `O=C(Nn1cnnc1)c1cc2ccccc2oc1=O`, the survival is inactive: 97%.
On to `COc1ccc(CCNC(=O)CCc2cn(Cc3ccc(C)cc3)c3ccccc23)c(OC)c1OC`, for which the survival was inactive: 52%.
Then `CCC(C)NC(=O)c1[nH]c2cc(C)ccc2c1Sc1ccc(Cl)cc1` (stereo not given), with inactive: 88%.
On to `CCOc1cc2[nH]c(=O)n(CCCCC(=O)N3CCN(c4ccccc4)CC3)c(=O)c2cc1OCC`, for which the survival is inactive: 77%.
As for `Cc1cccc(C)c1OCC(=O)Nc1c(C(=O)c2ccc(Br)cc2)oc2ccccc12`, the survival was inactive: 87%.
Then `COc1ccc2oc(=O)c(-c3cn4c(n3)sc3cc(F)ccc34)cc2c1`, with inactive: 76%; and `O=C(CN1C(=O)COc2ccc(S(=O)(=O)N3CCCCCC3)cc21)N1CCN(c2cccc(C(F)(F)F)c2)CC1`, with active: 61%; and `Cc1cccc(N2CCN(C(=O)C3CCN(S(=O)(=O)c4c(C)noc4C)CC3)CC2)c1C`, with inactive: 97%.
In the case of `COc1ccccc1Cn1cc(C(=O)c2ccc(F)cc2)c(=O)c2cc3c(cc21)OCO3`, the survival is inactive: 98%.
With `Cc1ccc(Nc2ncc(C(=O)N3CCN(c4cccc(Cl)c4)CC3)c3ccccc23)cc1Cl`, the survival is inactive: 67%.
Turning to `Cc1ccc2oc(C(=O)Nc3cccc(-c4nc5ccccc5s4)c3)c(C)c2c1`, the survival was inactive: 55%.
Regarding `Cc1ccccc1OCc1nnc(SCC(=O)O)n1CCc1ccccc1`, the survival is inactive: 84%.
Then `Cc1ccc(C)c(N2CCN(C(=O)c3cc(S(=O)(=O)N4CCC(C)CC4)cn3C)CC2)c1`, with inactive: 81%; and `COc1ccc(CC(=O)NCC(c2cccs2)S(=O)(=O)c2ccc(Cl)cc2)cc1` (stereo not given), with inactive: 77%.

The values above are taken from PubChem BioAssay AID463173 (ICCB-Longwood Screening Facility, Harvard Medical School, 2010).
